Assay results from publication PMC4336329 (PLoS ONE, 2015).
The campaign covered roughly 310,000 compounds. About 2,200 (0.71%) showed an effect of 50% or more. The effect is printed as a negative number. Some of the results follow.

target: human ether-à-go-go-related gene (hERG) potassium channel (human, UniProt Q12809); assay: primary screen, population patch clamp on CHO cells stably expressing hERG
Sequence (Q12809 whole entry, looked up): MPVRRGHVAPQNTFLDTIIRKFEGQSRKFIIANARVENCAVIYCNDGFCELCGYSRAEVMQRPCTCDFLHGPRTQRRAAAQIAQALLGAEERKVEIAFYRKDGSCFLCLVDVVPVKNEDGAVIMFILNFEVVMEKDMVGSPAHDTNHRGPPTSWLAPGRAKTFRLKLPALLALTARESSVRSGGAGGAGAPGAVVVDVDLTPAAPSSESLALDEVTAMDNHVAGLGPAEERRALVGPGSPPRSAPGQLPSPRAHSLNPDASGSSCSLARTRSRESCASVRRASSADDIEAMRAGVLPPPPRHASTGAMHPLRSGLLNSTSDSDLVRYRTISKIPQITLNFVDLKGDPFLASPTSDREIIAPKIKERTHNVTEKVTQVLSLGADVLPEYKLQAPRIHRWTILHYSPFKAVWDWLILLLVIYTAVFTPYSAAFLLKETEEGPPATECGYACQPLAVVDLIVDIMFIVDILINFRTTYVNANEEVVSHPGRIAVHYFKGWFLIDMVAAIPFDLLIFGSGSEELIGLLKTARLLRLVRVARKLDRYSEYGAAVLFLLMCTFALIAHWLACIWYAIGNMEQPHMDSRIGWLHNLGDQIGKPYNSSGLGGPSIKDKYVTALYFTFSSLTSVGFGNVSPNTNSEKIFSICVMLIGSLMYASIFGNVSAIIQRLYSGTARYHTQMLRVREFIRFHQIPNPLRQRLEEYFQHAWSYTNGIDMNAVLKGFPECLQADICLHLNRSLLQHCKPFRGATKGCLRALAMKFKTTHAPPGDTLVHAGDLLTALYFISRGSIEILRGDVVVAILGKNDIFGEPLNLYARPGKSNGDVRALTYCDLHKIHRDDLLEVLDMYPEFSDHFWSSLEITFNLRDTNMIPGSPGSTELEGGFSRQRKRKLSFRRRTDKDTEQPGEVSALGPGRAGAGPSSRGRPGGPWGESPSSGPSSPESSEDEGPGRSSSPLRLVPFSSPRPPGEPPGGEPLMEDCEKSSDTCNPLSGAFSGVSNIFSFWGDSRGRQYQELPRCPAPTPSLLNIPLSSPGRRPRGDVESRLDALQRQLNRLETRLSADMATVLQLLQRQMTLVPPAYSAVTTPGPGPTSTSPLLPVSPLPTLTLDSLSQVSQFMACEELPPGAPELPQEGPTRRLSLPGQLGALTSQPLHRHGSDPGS

SMILES	hERG current change (%, negative = inhibition) at 1uM
CCn1c(SCC(=O)c2ccc(Cl)cc2)nnc1-c1ccoc1C	-1.96%
CC(=O)O.CN(C)Cc1cn(CCC(=O)O)c2ccccc12	10.9%
Cn1c(SCC(=O)N/N=C/C=C/c2ccccc2[N+](=O)[O-])nc2ccccc21	2.89%
CCN(CC)S(=O)(=O)N1CCN(S(=O)(=O)N2CCOCC2)CC1	14.3%
CCCc1cc(=O)oc2c(C)c(OCC(=O)NCCN3CCOCC3)ccc12	-6.02%
COc1cccc(CN2CCN(CC(=O)NCCc3ccccc3)CC2)c1	15.3%
Cc1ccc(-c2nc3ccccc3[nH]2)cc1NC(=O)c1ccc2c(c1)OCO2	-12.5%
Cc1ccc(S(=O)(=O)N(CC(=O)Nc2cccc(C(F)(F)F)c2)C(=O)N2CCN(C)CC2)cc1	6.17%
CSCCC(NC(=O)c1ccccc1)C(=O)OCC(=O)N(C)CCC#N (centres unmarked)	14.9%
CCCOP(=O)(OCCC)c1nc(-c2ccccc2)oc1NCc1ccccc1	12.8%
C[C@H](CO)NC(=O)[C@@H]1C[C@H]1[C@@H](NP(=O)(c1ccccc1)c1ccccc1)c1ccccc1	9.18%
Cc1ccc([N+](=O)[O-])cc1N(CC(=O)NCC1CCCO1)S(C)(=O)=O (centres unmarked)	11%
Cn1cccc1C(=O)NC(=O)COC(=O)Cc1coc2ccc3ccccc3c12	13%
O=C(Nc1cccc(C(F)(F)F)c1)Nc1ccc(N2CCCC2)c(S(=O)(=O)Nc2ccccc2Cl)c1	19.7%
Cc1coc2c1c(C)cc1oc(=O)c(CC(=O)NCC(=O)N[C@H](C(=O)O)C(C)C)c(C)c12	9.35%
Cc1ccc(Cl)cc1N1CCN(C(=O)Cc2c(C(=O)O)[nH]c3ccccc23)CC1	-3.66%
Cn1cc(CCNC(=O)C2CCC(=O)N(CCc3ccc(Cl)cc3)C2)cn1 (centres unmarked)	6.82%
Cc1sc2ncnc(Nc3ccc(N4CCOCC4)cc3)c2c1-c1ccccc1	17%
Cc1cccc(CNC(=O)C2CCC(=O)N(C3CC3)C2)c1 (centres unmarked)	7.46%
CCN(CC)c1ccc2c(O)cc(=O)oc2c1	0.515%
N/C(=N\OC(=O)c1cccc([N+](=O)[O-])c1)c1cccnc1	8.63%
COc1ccc2nc3cc(Cl)ccc3c(Nc3cc(C(C)C)c(O)cc3C)c2c1	8.02%
CCOC(=O)N1CCN(C(=O)c2ccc3c(=O)n4c(nc3c2)CCCCC4)CC1	5.96%

SMILES	hERG current change (%, negative = inhibition) at 1uM
COc1ccc(OCc2nc(-c3ccc(F)c(F)c3)cs2)cc1	17.4%
O=C(CSc1nnc(CNC(=O)c2ccccc2F)o1)Nc1cccc(C(F)(F)F)c1	16%
O=C(CCc1nc(-c2ccccc2)no1)Nc1cccnc1	11.4%
Cc1ccc(/C=C2/C(=N)N3N=C(CC(=O)N4CCCC4)SC3=NC2=O)o1	9.17%
N#Cc1c(-c2ccccc2)nc2n1CCS2	10.6%
CC(C)C[C@H](NC(=O)N1CCn2c1nc1ccccc12)C(=O)N[C@H](Cc1ccccc1)C(=O)O	14%
Cc1cccn2c(=O)c3c(nc12)N1CCc2ccccc2C1C1(C3)C(=O)NC(=O)N(C)C1=O (centres unmarked)	9.95%
Cc1c(Cl)c([N+](=O)[O-])nn1CCCC(=O)Nc1cccc(Cl)c1	-15%
CC(C)(C)C(=O)N1CCN(C(=O)c2ccco2)CC1	15.4%
CSCCC(NC(=O)c1ccc(C(C)(C)C)cc1)C(=O)O (centres unmarked)	0.461%
CC(NS(=O)(=O)c1ccccc1)C(c1cccs1)N1CCN(c2ccccc2)CC1 (centres unmarked)	9.03%
Cc1nc2c(-c3ccccc3)c(C)nn2c(C)c1CCC(=O)NC(C)CCc1ccco1 (centres unmarked)	-3.77%
COc1ccc(COC(=O)C2CC(=O)N(Cc3ccccc3)C2)cc1 (centres unmarked)	-0.745%
Cc1cccc(Cc2ncc(C(F)(F)F)cc2Cl)c1	8.31%
N#C/C(=C\c1cn(-c2ccccc2)nc1-c1cc2ccccc2o1)c1nc2ccccc2[nH]1	8.78%
COc1ccc(C(=O)N2CCCC2=O)cc1	16.3%
CCOc1ccc2nc(NC(=O)c3ccccn3)sc2c1	8.87%
O=C(Nc1ccccc1)N1CC=C(c2ccc(F)cc2)CC1	7.84%
CC(C)(C)c1ccc(C(=O)N2CCC(C(=O)NCC3CCCO3)CC2)cc1 (centres unmarked)	-4.85%
Cc1ccc2cc(CN(CC(C)C)S(=O)(=O)c3cccc4nonc34)c(=O)[nH]c2c1	7.16%
O=C(NC12CC3CC(CC(C3)C1)C2)C1CC(=O)N(c2ccc(Br)cc2)C1 (centres unmarked)	8.59%
COc1ccc(NS(=O)(=O)c2ccc(NC(=O)C3CCCO3)cc2)cc1 (centres unmarked)	3.5%
CCOc1cc(C(=O)O)ccc1OCCOc1ccccc1	13.5%

SMILES	hERG current change (%, negative = inhibition) at 1uM
CC1CCN(C(=S)Nc2ccc3nc4n(c(=O)c3c2)CCCCC4)CC1	-8.58%
CCOC(=O)c1cnc(-c2ccccc2)nc1C(F)(F)F	5.88%
CCc1ccccc1NC(=O)Nc1cccc(F)c1	13.7%
Cc1ccc(S(=O)(=O)NCc2ccc(C(=O)NCCN(Cc3ccccc3)C(C)C)cc2)cc1	5.61%
Cc1ccc(OCC(=O)NNC(=S)NC(=O)c2ccc(Br)o2)c(C)c1	21.3%
CC(C)Cn1c(-c2ccc(Br)cc2)c[nH]c1=S	9.97%
Clc1cccc(Cl)c1C1=NOC(c2nnc(-c3ccccc3)o2)C1 (centres unmarked)	12.4%
CC12Cc3ccc4ccccc4c3C=C1C[N+](C)(C)C2.[Cl-] (centres unmarked)	5.54%
CC(C)(C)S(=O)(=O)/C(C#N)=C/Nc1ccccn1	11.8%
COc1ccc(-n2c(C)nnc2SCC(=O)N2C(C)CCCC2C)cc1 (centres unmarked)	-2.93%
CC(Oc1ccc(F)cc1)C(=O)/C=C\N(C)C (centres unmarked)	7.66%
O=C(CS(=O)(=O)Cc1ccccc1)Nc1ccc(S(=O)(=O)N2CCCCCC2)cc1	9.82%
COc1ccc(NC(=O)C2CCC2)cc1S(=O)(=O)N1CCOCC1	10.6%
O=C(Nc1nnc(CCS(=O)(=O)c2ccc3ccccc3c2)s1)c1cccs1	3.47%
CC(=O)NC(C)C(c1cccs1)N1CCN(c2ccccc2)CC1 (centres unmarked)	1.59%
CCC(C)Sc1nnc(Cc2cc(=O)[nH]c(=O)[nH]2)n1-c1ccc(F)cc1 (centres unmarked)	13.7%
COc1cc(-c2nc(=S)[nH][nH]2)cc(OC)c1OC	13.8%
Cc1ccc(C)c(-c2cc(C(=O)NN3CCOCC3)c3ccccc3n2)c1	6.54%
Cc1sc2nc(SCC(=O)NCCO)n(C)c(=O)c2c1C	10.2%
Cc1nn(C)cc1S(=O)(=O)NCc1ccccc1Cl	16%
CN(c1ccc(C(=O)Nc2cccnc2)cc1)S(C)(=O)=O	2.83%
Nc1ccc(S(=O)(=O)c2ccc(Cl)cc2)cc1	5.29%
CN(C(=O)Nc1ccc(Cl)c(Cl)c1)c1ccccc1C(=O)O	6.78%

SMILES	hERG current change (%, negative = inhibition) at 1uM
C/C(CC(=O)Nc1cc(Cl)ccc1C)=N\NC(N)=O	11.7%
CC1=C(C(=O)OCc2ccccc2)C(c2ccc(N(C)C)cc2)NC(=O)N1 (centres unmarked)	11.3%
CCN(CC(=O)NCc1ccc(Cl)cc1)C(=O)CCc1ccccc1	-19.8%
O=c1n(-c2ccccc2)c(=O)n2n1CC(O)C2	9.59%
O=C(NCc1ccc(C(=O)N2CCC3(CC2)OCCO3)cc1)c1ccc2c(c1)OCO2	5.42%
COc1cc(C(=O)NCc2ccccc2)ccc1OC(F)F	5.92%
CCc1ccc(C(=O)NNc2ccc(F)cc2F)cc1	14.5%
Cc1ccc(C(=O)Nc2ccc3c(c2)OCO3)cc1	4.56%
COc1ccc(S(=O)(=O)N(CC(=O)NC2CC3CCC2C3)c2ccccc2OC)cc1 (centres unmarked)	5.61%
C/C(=N/NC(=O)c1ccc(Cl)s1)c1ccc(NC(=O)COc2ccc(Cl)cc2)cc1	7.09%
Cc1ccc(S(=O)(=O)NCCC(=O)OCn2nnc3ccccc3c2=O)cc1	1.77%
Clc1ccc(C2=Nn3c(nnc3-c3n[nH]c4c3CCC4)SC2)cc1Cl	3.5%
CCC(=O)OCCCCCCOc1ccc(C(=O)O)cc1	13%
CCN(CCC#N)c1ccc(N2C(=O)CCCC2=O)cc1[N+](=O)[O-]	15.9%
O=C(c1ccc(N2C(=O)C3CC=C(Cl)CC3C2=O)cc1)N1CCOCC1 (centres unmarked)	12.3%
CCN(CC)C(=O)c1sc(NC(=O)c2cccnc2)c(C(=O)OC)c1C	-2%
CCn1ccnc1C(O)c1cccc2ccccc12 (centres unmarked)	11.7%
C=CCOc1cccc(/C=C/c2nc3ccccc3c(=O)[nH]2)c1	11.4%
Cc1ccc(NC(=O)c2ccc(-n3cccn3)c([N+](=O)[O-])c2)cc1C	-13.5%
CN(CCC#N)C(=O)COC(=O)/C=C/c1ccc2c(c1)OCO2	9.31%
